The other results are listed elsewhere or left out.
tested on: PfHDP1 homeodomain (GST-tagged); assay: gcPBM binding intensity (ln(normalized median fluorescence intensity)); higher = stronger DNA binding
Summary of the method: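 DNA-binding domains from P. falciparum, fused to GST and produced in E. coli, were put on an Agilent 4 × 180k double-stranded probe array for 1 h in 1× PBS holding 1% milk, 0.2 mg/ml BSA, 0.5% salmon testes DNA and 0.03% Triton X-100. Probes were primer-extended, 36 bp long and drawn from intergenic genomic regions, with negative controls included. After Alexa488 anti-GST antibody detection and a 488 nm scan, binding intensity was set as the highest Masliner-normalised natural-log median intensity across replicate spots of either probe orientation.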

Sequence	gcPBM binding intensity (ln)
TTTATATTTCTTCATCGTACACATAAAAAAAAAAAA [XGTACX_site3244]	6.74
ATACTCACGAAACACACACACAATATATATATATAT [CACACA_site4136]	9.18
AGGATATGCGGACACACACACATATATATATATATA [CACACA_site5247]	9.38
ATAATTTAAAAACATTGTACATTAATATATATGTAT [XGTACX_site8970]	6.24
ATAATAACTGATAAATGTACATATAAATTTTATGAT [XGTACX_site195]	6.72
GAAAATTTAAAAAGAGTGCATTATATGTTTGAATAT [GTGCAC_site9564]	8.73
TTTAACGAATAAAAATGTACAAATTTATACATTTAT [XGTACX_site2805]	6.09
AATAAAATAATAAAAGCACACAAGAATACACCCAAA [CACACA_site7919]	7.1
CTTTTTTTCTTTCCAAGTACTAAATTCATACAAATT [XGTACX_site2605]	6.37
TTTTATTTATAATACTCACACATTTATATTACATAT [CACACA_site6000]	6.69
CAAAAGGATGTGGGATGTACATATGAAAAAAAAAAA [XGTACX_site8059]	6.6
TAAATTTAAAAATCTGCACACATTTAAAAAAAAAAA [CACACA_site2515]	7.28
ATTACTAAAAAATATAAACACACATATATTTTACAT [CACACA_site8633]	6.58
GGTCTTTTTTTCAAAAGTACATAAATAAAAAAGGTT [XGTACX_site2894]	6.59
TTGTATGTAAAAAAGTGTACATGAGTGATTATATAA [XGTACX_site8166]	6.91
GTATATATCCCAAAATGTACATAATTTATTATTTAT [XGTACX_site2842]	6.5
ATTTATTTTCTGTGTACACATATGTTGGGTATTTTA [CACACA_site5902]	7.78
AGAAAAAAAAAAAGTACACACATATAACATATAGAT [CACACA_site7410]	6.45
ATAGGTAAAAAGTATACACACGTTGACACATTCTTT [CACACA_site4794]	6.46
ATTTTAAAAAGGATAGTGCAAATGTTAAAATAGGAC	9.91
AAATAATACAAGGGCTGTACATAAAAAGGAGTATAT [XGTACX_site839]	7.15
GGAAAACACAAAAACTGTACATTTATTCAACATATA [XGTACX_site5831]	6.53
TATATACATATATACACACACATATATATATATATA [CACACA_site2805]	9.28

Sequence	gcPBM binding intensity (ln)
TACAAAAAAATAAATAATAAAAAAAAATATATATAA [XGTACX_negctrl_site344]	6.32
CAGGTGCACTATATTACACACGCTTCTTTTTTTTTA [CACACA_site2069]	11
TTGATATTATTGTATAAACATAATAGAGATAAAGAG [TGCATGCA_negctrl_site455]	7.08
AACATGTTAACTAAATGTACACACCTATGTTGATGT [XGTACX_site3777]	6.34
TGAAGGATATATTCCGTGCACATATAAATATATACA	9.45
AATAAATGGAATGTCACACATATATATATATATATA [CACACA_site4869]	9.4
ATTATTTAAAAAAAATGTACATAATAAATATGAACG [XGTACX_site4010]	6.2
TAAATTAAAAAACACACACACAAAAAAAAAAAAAAA [CACACA_site2263]	6.02
AAAAAAAAGAAAGAAAGTACAAATTATAAAATGAAC [XGTACX_site860]	6.62
AGTGTATGTATATAAACACACATACATATTTATAAC [CACACA_site6777]	6.35
ATTTCTAAATGTTGGTGTACGTTTTTTTATAACCTT [XGTACX_site1752]	6.78
TTATGTATTCATTTTTTTTAAGCACCCCAAAATGAT [CACACA_negctrl_site1344]	6.78
ATAATATATATATAAACACACAAAAAAAATTATATA [CACACA_site1534]	6.69
TATTTATTAAAACACACACACACACCCACAAAATAA [CACACA_site241]	7.2
ATTTTTTTTTATGATACACACTTGGATAATTAAAAC [CACACA_site4473]	6.49
TTATTCATTTTTATTTGTACATAATTATATGAAATT [XGTACX_site6389]	6.53
TTTTATATTTTATGCACACTTATAAGAAATATGTAC [CACACA_site3040]	10.6
CAAAATGTTTCTCATTGTACACAAAATAAATGTCCT [XGTACX_site6798]	6.33
TAATGAATTTAAATTTTAAAATTAATAAAAAAAATA [TGCATGCA_negctrl_site15]	6.38
ATTAGTAAATTTATATGTACACATTGTTATTTTATA [XGTACX_site1177]	6.66
ACATTTACAAGGAAAGTGCATATAAGAAAAATAAAA [GTGCAC_site9587]	8.79
ATACATATGTATATTTGTACATATTAGACAATCTTA [XGTACX_site6706]	6.3
